Results as given in PubChem BioAssay AID504333 (National Center for Advancing Translational Sciences (NCATS), 2011).
Several values for one entry are separate records, joined by “and”; a condition that tells them apart may be missing. Equal entries are not always repeated. The campaign covered roughly 360,000 compounds. About 16,000 (4.4%) were called active. The shares of active, inactive and inconclusive entries below differ from those in the screen. Calls follow the shape of the dose curve; as a rule, active = well fitted inhibition curve with a large enough effect; inconclusive = small, poorly fitted or top-dose-only effect; inactive = no such curve, though single readings can be large or run the other way. Where the call is inconclusive, the potency comes from a doubtful curve fit.

Biological target: Bromodomain adjacent to zinc finger domain protein 2B (Homo sapiens) (UniProt Q9UIF8)
Assay: qHTS Assay for Inhibitors of BAZ2B; also: nearly all actives have a fitted effect of over 60% in size
Conditions: AlphaScreen BAZ2B-H3K14Ac peptide displacement; series mostly up to 114 µM
How it was run: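 Protein-peptide AlphaScreen: BAZ2B 50 nM, b-H3K14Ac 50 nM, 1x PBS pH 7.4 + 0.01% Tween-20. Preincubation 30 min RT; cpd 30 min RT (top 110 uM); beads 20 min RT, light-protected.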
Potency is read from the fitted curve at half-maximal effect; tags tell the direction and shape of the fitted curve.

Sequence of UniProt Q9UIF8 (Q9UIF8 whole entry, looked up, the tested form may be a part): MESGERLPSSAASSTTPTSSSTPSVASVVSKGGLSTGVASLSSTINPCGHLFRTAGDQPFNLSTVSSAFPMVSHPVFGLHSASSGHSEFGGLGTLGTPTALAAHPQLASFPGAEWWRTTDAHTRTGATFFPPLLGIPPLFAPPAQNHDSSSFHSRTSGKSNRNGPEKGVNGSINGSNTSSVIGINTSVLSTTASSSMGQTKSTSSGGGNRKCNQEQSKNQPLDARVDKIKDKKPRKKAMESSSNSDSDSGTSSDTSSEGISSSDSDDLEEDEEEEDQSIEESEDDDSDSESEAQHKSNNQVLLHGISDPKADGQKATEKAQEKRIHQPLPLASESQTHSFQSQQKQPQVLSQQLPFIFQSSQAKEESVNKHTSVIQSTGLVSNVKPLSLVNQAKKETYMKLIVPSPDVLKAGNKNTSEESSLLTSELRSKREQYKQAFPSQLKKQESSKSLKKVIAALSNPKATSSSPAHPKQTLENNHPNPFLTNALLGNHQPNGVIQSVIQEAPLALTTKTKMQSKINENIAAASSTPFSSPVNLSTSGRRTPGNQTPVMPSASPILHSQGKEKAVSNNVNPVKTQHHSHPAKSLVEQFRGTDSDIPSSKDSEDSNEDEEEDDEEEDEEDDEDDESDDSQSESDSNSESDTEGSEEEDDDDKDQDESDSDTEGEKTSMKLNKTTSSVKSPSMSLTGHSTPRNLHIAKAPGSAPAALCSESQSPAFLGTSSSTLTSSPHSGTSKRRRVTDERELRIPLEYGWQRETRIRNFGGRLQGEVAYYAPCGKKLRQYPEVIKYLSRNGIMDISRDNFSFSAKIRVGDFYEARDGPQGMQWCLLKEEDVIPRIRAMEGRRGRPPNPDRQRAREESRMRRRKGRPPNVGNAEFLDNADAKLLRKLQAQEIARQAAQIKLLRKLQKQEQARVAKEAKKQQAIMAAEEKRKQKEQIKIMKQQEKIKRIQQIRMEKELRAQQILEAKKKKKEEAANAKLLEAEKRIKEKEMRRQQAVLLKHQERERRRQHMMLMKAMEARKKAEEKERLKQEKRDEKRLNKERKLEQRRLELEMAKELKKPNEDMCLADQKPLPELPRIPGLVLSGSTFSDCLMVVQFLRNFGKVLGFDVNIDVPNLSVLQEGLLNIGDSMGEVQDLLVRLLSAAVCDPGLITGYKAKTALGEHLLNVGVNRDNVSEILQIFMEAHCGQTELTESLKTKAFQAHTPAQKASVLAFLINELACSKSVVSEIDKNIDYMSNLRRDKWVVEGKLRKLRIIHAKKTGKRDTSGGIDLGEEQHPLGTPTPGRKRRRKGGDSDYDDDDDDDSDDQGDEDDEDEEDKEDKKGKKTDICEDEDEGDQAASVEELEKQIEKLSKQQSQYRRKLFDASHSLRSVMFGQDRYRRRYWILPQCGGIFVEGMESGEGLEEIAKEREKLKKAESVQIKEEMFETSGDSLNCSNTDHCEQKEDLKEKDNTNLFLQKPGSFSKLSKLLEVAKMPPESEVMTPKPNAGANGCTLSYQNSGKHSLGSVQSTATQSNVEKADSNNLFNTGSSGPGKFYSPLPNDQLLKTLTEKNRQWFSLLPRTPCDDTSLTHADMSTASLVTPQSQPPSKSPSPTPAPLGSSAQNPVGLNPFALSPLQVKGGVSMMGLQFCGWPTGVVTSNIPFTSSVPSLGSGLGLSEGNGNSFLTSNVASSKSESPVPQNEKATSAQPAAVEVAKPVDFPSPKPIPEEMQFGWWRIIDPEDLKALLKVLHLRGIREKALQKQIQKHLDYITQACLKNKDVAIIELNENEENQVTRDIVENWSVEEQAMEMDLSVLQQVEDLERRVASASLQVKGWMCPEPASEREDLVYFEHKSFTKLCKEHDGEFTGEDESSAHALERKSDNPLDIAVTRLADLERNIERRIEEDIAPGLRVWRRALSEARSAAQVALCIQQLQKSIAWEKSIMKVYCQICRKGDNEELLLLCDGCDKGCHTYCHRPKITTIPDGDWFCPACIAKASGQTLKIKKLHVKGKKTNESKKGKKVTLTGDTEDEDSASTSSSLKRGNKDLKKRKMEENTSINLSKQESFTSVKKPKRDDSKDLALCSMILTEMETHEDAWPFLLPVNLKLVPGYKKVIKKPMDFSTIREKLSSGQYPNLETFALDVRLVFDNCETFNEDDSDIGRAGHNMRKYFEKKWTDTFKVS

Compound | Potency
Cc1cccnc1N(C(=O)Nc1ccccc1)C1=NCC(C)(C)S1 | inactive
Cc1[nH]cnc1CSCc1ccc(Cl)cc1 | inconclusive: 0.631 µM [inhibitor, full curve, poor fit]
Cc1cccc(NC(=O)CSc2nnc(-c3cc(C)[nH]n3)n2N)c1 | inactive
O=C(O)c1nccnc1C(=O)N1CCN(c2ccccc2)CC1 | active: 56.2 µM
O=C(/C=C/c1ccco1)NCc1ccco1 | active: 56.2 µM
COCC(C)n1c(C)cc(C(=O)COc2ccc(N(C)S(=O)(=O)c3ccc(NC(C)=O)cc3)cc2)c1C (configuration not stated) | inconclusive: 39.8 µM [inhibitor, partial curve]
Cc1cccc(CS(=O)(=O)Cc2ccc(C(=O)NCc3ccc(F)cc3)o2)c1 | inactive
Cc1ccccc1N(C(=O)CCCC(=O)Nc1ccccn1)C(C(=O)NC1CCCC1)c1ccc(O)cc1 (configuration not stated) | inactive
COc1ccc(NC(=O)c2ccccc2N(Cc2ccccc2)S(C)(=O)=O)cc1OC | inactive
CCOC(=O)c1c(C)oc2ccc(N(C(=O)c3ccncc3)S(=O)(=O)c3ccc(F)cc3C)cc12 | inconclusive: 70.8 µM [inhibitor, single point]
CC(COS(N)(=O)=O)Cc1ccc(C(F)(F)F)cc1 (configuration not stated) | inactive
COc1ccccc1CNC(=O)[C@H](C)N1C(=O)N2CCc3c([nH]c4ccccc34)[C@@]2(C)C1=O | inconclusive: 44.7 µM [inhibitor, partial curve]
Cc1ccccc1C(=O)Oc1cc(N)n(S(C)(=O)=O)n1 | inactive
COc1ccccc1NC(=O)CSc1nnc(COc2ccc(Cl)cc2)n1Cc1ccco1 | inconclusive: 89.1 µM [inhibitor, single point]
Cc1ccc(OC(=O)c2cccc(S(=O)(=O)N3CCN(C)CC3)c2)c(Br)c1 | inconclusive: 35.5 µM [inhibitor, partial curve]
O=C(c1cc([N+](=O)[O-])ccc1N1CCOCC1)N1CCN(S(=O)(=O)c2ccc(F)cc2)CC1 | inactive
Cc1cc2c(c(=O)o1)C(c1ccc([N+](=O)[O-])o1)C(C#N)=C(N)O2 (configuration not stated) | inconclusive: 56.2 µM [inhibitor, partial curve]
COc1ccc(CC(=O)N2CCc3c([nH]c4ccccc34)C2c2ccc(SC)cc2)cc1 (configuration not stated) | inconclusive: 25.1 µM [inhibitor, full curve, poor fit]
CN(C)c1ccc(/C=C(\Cl)c2nc3ccccc3s2)cc1 | active: 44.7 µM
O=C(C[n+]1ccccc1)N/N=C/c1cc(Br)cc(Br)c1O | active: 10 µM
Cc1cc(Cl)cc(Br)c1OCCCCn1cncn1 | active: 50.1 µM
COc1ccc(N(CC(=O)N/N=C/c2ccco2)S(=O)(=O)c2ccccc2)cc1 | inconclusive: 79.4 µM [inhibitor, single point]
C/C(=N\NC(=O)c1ccccc1O)c1cccs1 | inactive
Cc1cc(/C=C(\C#N)C(=O)NCCc2c[nH]c3ccccc23)c(C)n1C | inconclusive: 28.2 µM [inhibitor, full curve]

Compound | Potency
COc1ccc(S(N)(=O)=O)cc1C(=O)OCC(=O)N1CC(=O)Nc2ccccc21 | inactive
CCOC(=O)C1=NNC(C(=O)c2ccccc2)C1c1ccc(C)cc1 (configuration not stated) | inactive
COc1ccc(-c2nc(SCC(=O)NC3CCCC3)c(-c3ccc(F)cc3)[nH]2)cc1OC | inconclusive: 50.1 µM [inhibitor, partial curve]
O=C(NCC1CCCO1)c1ccc2c(c1)N(Cc1ccccc1)CCS2 (configuration not stated) | inconclusive: 79.4 µM [inhibitor, partial curve]
Cc1cc(N=Nc2ccc(Cl)cc2)cc(CN2CCCC2)c1O | active: 10 µM
CN1CCN(c2ccc(NC(=S)NC(=O)c3cccc4c(Br)cccc34)cc2)CC1 | inconclusive: 10 µM [inhibitor, full curve, poor fit]
CCc1ccc(/C=C2/SC(=S)N(CC(=O)Nc3nc4ccccc4s3)C2=O)cc1 | inconclusive: 10 µM [inhibitor, full curve, poor fit]
COc1ccc(C)cc1NC(=O)Cn1nc(N2CCN(c3ccccc3OC)CC2)ccc1=O | inconclusive: 70.8 µM [inhibitor, single point]
COc1ccccc1Cc1nc2ccccc2nc1SCC(=O)NCc1ccc(C)cc1 | inactive
COc1cc(CN(CCc2c(C)[nH]c3ccc(C)cc23)C(=S)NC(C)(C)C)cc(OC)c1OC | inconclusive: 44.7 µM [inhibitor, partial curve]
COc1cc(N)ccc1-c1cc2ccccc2oc1=O | inconclusive: 89.1 µM [inhibitor, single point]
CCOC(=O)c1c(NC(=O)CN2CCCCC2)sc2c1CCCC2O (configuration not stated) | inconclusive: 89.1 µM [inhibitor, single point]
COCCNC(=S)N/N=C(\C)CCc1ccc2c(c1)OCO2 | inactive
COc1ccc(-n2cc(-c3ccccc3)[nH]c2=S)c(OC)c1 | inconclusive: 50.1 µM [inhibitor, partial curve]
CCOC(=O)N1CCN(S(=O)(=O)c2ccc(C)cc2)C1 | inconclusive: 39.8 µM [inhibitor, single point]
CN1CCN(NC(=O)c2ccc(COc3ccccc3Br)o2)CC1 | inactive
COc1ccc(OC)c(N/C=C/C(=C(C#N)C#N)N(C)C)c1 | inactive
COc1ccc(N2CCN(C(c3ccccc3OC)c3nnnn3C3CCCC3)CC2)cc1 (configuration not stated) | active: 44.7 µM
CCOc1cc(/C=N/NC(=O)c2cccnc2)ccc1OCc1ccc(C(=O)OC)o1 | inconclusive: 89.1 µM [inhibitor, single point]
CN1C(=O)CC(Nc2cccc3cccc(N)c23)C1=O (configuration not stated) | inconclusive: 56.2 µM [inhibitor, partial curve]
COc1ccc(OCC(=O)Nc2ccc(OC)c(S(=O)(=O)N3CCCCC3)c2)cc1 | inactive
CCc1oc2ccccc2c1C(=O)c1cc(Br)c(O)c(Br)c1 | inconclusive: 79.4 µM [inhibitor, partial curve]
CCOCCc1nn2c(=O)cc(COC(=O)c3ccc(NC(=O)c4cccs4)cc3)nc2s1 | inactive
Fc1ccccc1-c1csc(=Nc2cccnc2)n1CC1CCCO1 (configuration not stated) | inconclusive: 31.6 µM [inhibitor, partial curve]

Compound | Potency
COc1ccc(-c2[nH]c(-c3ccc(C)cc3)nc2SCC(=O)Nc2nccs2)cc1 | inconclusive: 39.8 µM [inhibitor, partial curve]
CCOC(=O)c1sc2nc(-c3cccnc3)ccc2c1N | inactive
Cc1cc(C(=O)CCl)c(C)n1Cc1ccco1 | inconclusive: 50.1 µM [inhibitor, partial curve]
CCNCC(=O)Nc1ccc(N2CCOCC2)cc1 | inconclusive: 79.4 µM [inhibitor, single point]
CN(C)C(CNc1ncnc2sc3c(c12)CCCCC3)c1ccco1 (configuration not stated) | inconclusive: 56.2 µM [inhibitor, partial curve]
COc1ccc(/C=C/C(=O)c2ccccc2O)cc1CN1CCOCC1 | inconclusive: 44.7 µM [inhibitor, partial curve]
COc1c(C)cc(C(=O)C2CCCN(C(=O)c3ccc4[nH]ccc4c3)C2)cc1C (configuration not stated) | inconclusive: 89.1 µM [inhibitor, single point]
CC(C)=C(NC(=O)c1ccccc1)C(=O)N/N=C(\C)c1ccccc1O | inactive
CC/C(=C(\c1ccccc1)c1ccc(OCCN(C)C)cc1)c1ccccc1 | active: 44.7 µM and active: 35.5 µM
COc1cc(C2C(C(=O)OC(C)C)=C(C)N=C3SCCC(=O)N32)ccc1OCc1ccccc1 (configuration not stated) | inconclusive: 25.1 µM [inhibitor, partial curve]
Cc1nn(CCCC(=O)Nc2sc3c(c2C#N)CCC3)c(C)c1[N+](=O)[O-] | inconclusive: 31.6 µM [inhibitor, partial curve]
COc1cccc(NC(=O)COC(=O)c2c(C)nn(-c3ccccc3)c2C)c1 | inconclusive: 89.1 µM [inhibitor, single point]
CCCN1C(=O)/C(=C/c2ccc(N3CCOCC3)cc2)NC1=S | inactive
CS(=O)(=O)NCCc1csc2nc(-c3ccccc3)nn12 | inactive
COc1ccccc1NC(=O)CSc1nccn1Cc1ccc(F)cc1 | inconclusive: 39.8 µM [inhibitor, partial curve]
NCC(O)(c1ccc(Cl)cc1)c1ccc(Cl)cc1 | inconclusive: 89.1 µM [inhibitor, single point]
Cc1ccc(-n2nc3ccc(NC(=O)C(C)C)cc3n2)cc1 | inconclusive: 79.4 µM [inhibitor, single point]
COc1ccc(NC(=O)CC(C)c2ccccc2)c([N+](=O)[O-])c1 (configuration not stated) | inconclusive: 50.1 µM [inhibitor, partial curve]
O=C(O)c1cccc(-c2ccc(/C=N/n3cnc4sc5c(c4c3=O)CCCC5)o2)c1 | inconclusive: 89.1 µM [inhibitor, single point]
CC(=O)Nc1ccc(NC(C)=C(C#N)C#N)cc1 | inactive
COc1ccc(C(CNC(=O)c2[nH]c(C)c(C(C)=O)c2C)N2CCOCC2)cc1 (configuration not stated) | inconclusive: 89.1 µM [inhibitor, single point]
O=[N+]([O-])c1ccc(CN2CCOCCOCCN(Cc3ccc([N+](=O)[O-])cc3)CCOCC2)cc1 | inconclusive: 79.4 µM [inhibitor, single point]
COc1ccc(NC2CCCN(C(=O)CSc3ccccc3)C2)cc1 (configuration not stated) | inconclusive: 44.7 µM [inhibitor, partial curve]
CC(C)CC1Nc2ncnc(N3CCN(c4ccccc4)CC3)c2N(Cc2ccccc2)C1=O (configuration not stated) | inconclusive: 44.7 µM [inhibitor, partial curve]
